# Measured values as given in the supplement of paper PMC3334620.
# Over roughly 33,000 sequences, “E-score (-0.5 to 0.5)” has its median near -0.016; the highest 2% begin near 0.32. The list shows a part of the results.
# Molecular target: T1, Stp1 (UniProt B3LFK1)
# T1 sequence: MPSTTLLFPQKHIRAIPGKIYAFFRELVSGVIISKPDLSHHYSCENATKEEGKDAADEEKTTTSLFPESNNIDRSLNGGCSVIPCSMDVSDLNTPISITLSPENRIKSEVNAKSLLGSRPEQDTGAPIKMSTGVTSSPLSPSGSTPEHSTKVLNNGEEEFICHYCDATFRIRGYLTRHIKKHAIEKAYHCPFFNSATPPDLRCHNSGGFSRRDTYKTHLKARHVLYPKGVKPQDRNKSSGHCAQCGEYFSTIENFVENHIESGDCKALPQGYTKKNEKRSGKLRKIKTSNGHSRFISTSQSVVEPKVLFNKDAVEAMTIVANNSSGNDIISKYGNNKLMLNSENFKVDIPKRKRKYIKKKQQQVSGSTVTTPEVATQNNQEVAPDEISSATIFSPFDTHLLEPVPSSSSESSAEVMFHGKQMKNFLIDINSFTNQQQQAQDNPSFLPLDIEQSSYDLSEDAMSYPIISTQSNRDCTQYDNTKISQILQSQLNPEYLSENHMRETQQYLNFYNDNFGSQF
# Assay: PBM E-score (8-mer binding enrichment) (E-score (-0.5 to 0.5)); higher = stronger / more preferred TF binding; most listed sequences are background and not binding sites
# Details: protein concentration: 200 nM; construct: GST-full length
# Summary of the method: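 Yeast transcription factors carrying a GST tag, as full-length proteins or DNA-binding domains, were produced by PURExpress in vitro transcription/translation. About 100-200 nM protein was applied to universal all-10-mer Agilent arrays, double-stranded by primer extension on fresh or once-stripped slides. Bound protein was detected with fluorescent anti-GST, and scans were normalised with masliner. The Universal PBM Analysis Suite gave each ungapped eight-base word, pooled with its reverse complement, an E-score, a modified Wilcoxon-Mann-Whitney statistic.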
row,Sequence,PBM E-score
1,AAAACTTT,-0.0797
2,AAATGACC,-0.187
3,GCAACGCC,0.307
4,ATATTAAG,0.14
5,CCGATCTA,-0.137
6,ACAGTGGT,-0.15
7,GGCGGGGA,0.103
8,ACAGACAG,0.131
9,ACCAGTGG,-0.124
10,ACTGTCGA,-0.163
11,GACGTCGA,-0.0178
12,GGCCTAAA,-0.0904
13,ATCCTTTC,-0.104
14,AGTAGCGG,0.00328
15,GAATGCCA,0.134
16,CGAAACGC,-0.0209
17,AGGCCGGG,-0.163
18,AGATCTCC,-0.34
19,CGCAGAAG,-0.0151
20,ATACCGGA,-0.118
21,GGGTCGAA,-0.167
22,CAAGTGCG,0.0134
23,AGATCCAA,0.0566
24,CGAATACC,-0.123
25,AGAACTAG,-0.144

row,Sequence,PBM E-score
1,TCGCGCGA,-0.0424
2,TAACGTTA,-0.0405
3,ATTGATCC,0.0155
4,CTGTGCTA,-0.0189
5,GAGCCACA,-0.0282
6,CGCCAAAG,-0.143
7,ATAGATTG,0.0305
8,AAACTCAC,0.0404
9,ACGACTGC,-0.211
10,ATGTGACA,0.18
11,CGTAGGTA,0.0611
12,CCCAATCA,-0.0533
13,CTATCGCA,0.0466
14,GCCTTGTA,0.354
15,ATCGATTG,0.237
16,AACGCCAG,0.0837
17,GCAAGGGC,-0.0671
18,CTTATGCC,0.154
19,CACGCGCG,0.269
20,CCGGCACC,0.254
21,AACCCTGA,-0.0508
22,TACAAACA,0.223
23,TTGCCAAA,0.0139
24,CCCTCGCC,-0.188
25,CATGCCTA,-0.0468

row,Sequence,PBM E-score
1,CGAAATTA,0.208
2,GAACATGA,0.00429
3,CCGCTTAC,0.0762
4,ATGTGCCG,0.377
5,GTGGCAGA,0.0454
6,ATAAGAGG,0.0649
7,ACAAGAAG,0.042
8,ACCTGTAG,0.0455
9,CATCCCGG,-0.289
10,ATCCCGGC,-0.117
11,CTATCGGA,-0.108
12,AAGCACAC,-0.0973
13,CTAATCCC,-0.0766
14,CAGGCTGG,-0.214
15,CTGGAGTA,0.0835
16,CTGTGCGA,-0.0295
17,AAACAGCA,0.211
18,AACAAAGA,0.15
19,GCAATATA,0.187
20,CTAGACCC,-0.266
21,TGTTTCAA,0.182
22,ATTTCCGA,0.0422
23,AAGTCTGC,-0.166
24,AAAGCGCG,0.0803
25,ACGCCTAA,0.014

row,Sequence,PBM E-score
1,ACCCCCAA,-0.349
2,AGACTTCG,-0.232
3,CGCCCATC,-0.141
4,GCTACGGA,0.058
5,CAACACGC,-0.0386
6,CGTGAGTC,-0.238
7,AGACCTTG,-0.0339
8,CGATCTAG,-0.178
9,ACTCCGAT,-0.3
10,ATGGGCTC,-0.145
11,ACTAATAA,0.115
12,CGCGTACG,0.2
13,AGTTCTGC,0.108
14,AAACCTCC,-0.237
15,ACCGGCTG,-0.0577
16,ACGGAACA,0.133
17,CAAGCTTC,-0.18
18,CCAATAAC,0.0278
19,CATACCCC,-0.0963
20,ACCGCGAA,0.104
21,GCGACGTA,-0.0871
22,GTTATCAA,-0.0184
23,CTTACTGC,0.0393
24,CTTATGGA,-0.0787
25,ATCAGCGA,-0.0139

row,Sequence,PBM E-score
1,AACGTGAA,-0.0435
2,GCCCCTCA,0.00228
3,GGTCATAC,-0.199
4,CGACACGC,-0.04
5,AATAGCTC,-0.122
6,ATCGATCG,0.178
7,ATGATGGA,-0.0152
8,CCGGAAAG,-0.195
9,TGTAAACA,0.0901
10,CATCGCTA,0.0812
11,ATAACGCA,0.00911
12,TAACCACA,-0.022
13,GTAGGTAA,-0.101
14,AAACTAAA,0.103
15,ACAGCTAC,-0.29
16,GAAGAAAC,0.087
17,CTAATGTA,0.135
18,GGCTAACC,-0.157
19,GCTCGTCA,-0.0652
20,ACATGTAC,-0.0624
21,CGCATTTC,0.0727
22,CTTCTGTC,0.0328
23,CTCTGACC,-0.232
24,ACGGTCAT,0.0868
25,CGGGAAAG,-0.127

row,Sequence,PBM E-score
1,GGGAACTA,-0.0848
2,GGACGTAA,-0.0715
3,CACGGAGC,0.229
4,CCAAATCA,0.115
5,ACGGATGC,0.301
6,TGGATCAA,0.11
7,ACCCCCGA,-0.185
8,GCATACCA,-0.165
9,ACCCATGA,-0.325
10,CAGTCGAC,0.0565
11,ATAGACCC,0.0118
12,AGTCTGTA,-0.18
13,GAGCCCGC,0.0162
14,ATCGCATC,-0.067
15,AGAGTGGC,-0.0945
16,GGCTCCAA,0.266
17,GATGAAGA,-0.0141
18,CTTACTCA,-0.103
19,AGTAGAGC,-0.0318
20,AGCTCAAT,0.0498
21,CCAGCAGG,-0.154
22,GTGCGGTA,0.28
23,ACAGGAGC,-0.114
24,AACCTCTA,-0.104
25,CTGTTTTC,0.0327

row,Sequence,PBM E-score
1,ATAATGAC,-0.189
2,TGTCCGAA,0.115
3,AGGTTGAG,-0.144
4,AACTTCGC,0.0233
5,CTGCGCCA,0.106
6,GTTTAAAC,0.0889
7,ACAGGACG,-0.0475
8,GTAAGGAC,-0.0213
9,AAGAGCTT,-0.149
10,GTAACGGA,-0.00869
11,AGGTCTGC,-0.141
12,AACGTATC,-0.109
13,CCGGTACC,-0.258
14,ATAGAAAC,0.252
15,AACTGGAG,-0.133
16,CCTCCGTC,-0.179
17,GAAGTGTA,-0.125
18,AGTAGACG,0.0756
19,ACGCTATC,-0.0876
20,AATACTAC,0.149
21,TATGACCA,-0.00763
22,CGTGTAAG,0.155
